According to the supplement of paper PMC10986608:
This is one part of the list. Single values are uncertain, as repeats are few or missing.

Test system: Candida albicans DPL-15
Assay: growth (OD600) after compound treatment (apparently relative to screen median) (relative growth (fraction; screen median 1.02)); DPL-15 is a caspofungin-resistant clinical isolate; higher = more fungal growth (less antifungal activity)
Conditions: 25 µM; RPMI 1640; 48 h; 30 °C

Compound	growth
CC(C)c1n[nH]c2c1C(c1ccc(Br)cc1)N(c1ccccc1)C2=O (stereo unspecified)	0.864
COc1ccc([C@@]23Oc4cc(OC)cc(OC)c4[C@]2(O)[C@H](O)[C@H](C(=O)c2ccccc2OC)[C@H]3c2ccccc2)cc1	1.25
O=C(N1CC[C@@]2(Cc3occc(=O)c3O)c3ccccc3N[C@@H]12)C(F)(F)F	1.06
CC(C)c1nn(-c2ccccc2)c2c1C(c1ccc(F)cc1)NC2=O (stereo unspecified)	1.13
COc1cc(OC)c2c(=O)c(O)c(-c3ccc(C(F)(F)F)cc3)n(C)c2c1	active: 0.0901
C=CCN1C(=O)C2=C(C(c3ccccc3)=NCCN2C)C1c1ccc(Br)cc1 (stereo unspecified)	0.942
O=C(c1c(O)cc(O)cc1Nc1ccnn1-c1ccccc1)N1Cc2cn[nH]c2C1	0.986
CC(=O)C1=C2C=CCCN2C(=O)NC1c1cccc(C(F)(F)F)c1 (stereo unspecified)	1.01
CC(C)NS(=O)(=O)OC[C@H]1O[C@@H](n2cnc3c(N(C(=O)OC(C)(C)C)C(=O)OC(C)(C)C)ncnc32)[C@@H]2OC(C)(C)O[C@@H]21	0.858
CC(=O)OC[C@H]1O[C@H](c2ccccc2)C=C[C@@H]1OC(C)=O	1.01
CC#CCN1C(=O)N[C@@H](c2ccccc2)C(C(=O)OC)=C1C	0.922
CN1CCCc2nc(-c3ccc(F)cc3)ccc21	0.922
CC1=C[C@@H](COc2ccccc2)O[C@@]2(C1)C(=O)N(Cc1ccccc1)c1ccccc12	0.936
C/C=C/C=C/C(=O)Nc1cccc2cccnc12	1.04
COc1ccccc1Cn1nc(C)c2c1C(=O)NC2c1cccc(C(F)(F)F)c1 (stereo unspecified)	0.934
CCCCCOS(=O)(=O)Nc1ccccc1C#N	1.14
C=CCN1C(=O)C2=C(C(C(C)C)=NCC(C)(C)N2)C1c1ccccc1 (stereo unspecified)	0.981
CC(C)Cc1n[nH]c2c1C(c1ccccc1Br)N(c1ccc(N(C)C)cc1)C2=O (stereo unspecified)	0.885
COC(=O)C1=C(C)N(Cc2ccc(F)cc2)C(=S)NC1c1cccc(OC)c1 (stereo unspecified)	0.881
C=CCN1C(=O)C2=C(C(C(C)C)=NCCN2C)C1c1ccc2c(c1)OCO2 (stereo unspecified)	0.998
Cc1ccccc1-c1cc(N)n(C)n1	1.03

Compound	growth
C#CCC(C)(C)CNC(=O)CC1(CNC(=O)c2cccc(/C=N/NS(=O)(=O)c3ccc(C)cc3)c2)CCCCC1	0.991
CC(=O)OC[C@H]1O[C@H](c2cccc(C(C)=O)c2)C=C[C@H]1OC(C)=O	0.99
COc1ccc(-c2ccc3c(n2)CCCN3S(=O)(=O)c2ccc(OC)cc2)cc1	1.01
CC(C)CC1=NCCNC2=C1C(c1ccc3c(c1)OCO3)NC2=O (stereo unspecified)	1.08
CC(=O)C1=C(C)N(Cc2ccccc2)C(=S)NC1c1ccc(Cl)cc1 (stereo unspecified)	0.962
COc1ccc(N2C(=O)C3=C(C(CC(C)C)=NCCN3)C2c2ccccc2)cc1 (stereo unspecified)	1.07
Cc1c2n[nH]c1-c1cccc(c1)C(=O)NCC1(CCCCC1)CC(=O)N[C@@H](c1ccccc1)COC2	1.13
CC#CCN1C(=O)N(C(C)=O)C(c2ccccc2)C(C(=O)OC)=C1CCl (stereo unspecified)	1.24
COC(=O)C/C=C/[C@H](C)[C@@H](NC(=O)[C@H](Cc1ccccc1)NC(=O)OC(C)(C)C)c1cccc(Br)c1	0.968
C[C@@H]1C2C(C(=O)NC3CCCC3)=C(c3ccccc3)NC2C(=O)C[C@H]1c1ccccc1 (stereo partly specified)	0.936
CC1=NCCN(C)C2=C1C(c1ccccc1)N(c1ccccc1)C2=O (stereo unspecified)	0.965
CC#CCCN1C(=O)N(C(C)=O)C(c2ccccc2)C(C(C)=O)=C1C (stereo unspecified)	1.01
COC(=O)[C@]1([C@H]2CCC(=O)O2)CC(=O)c2c(O)ccc(Br)c2O1	0.92
COc1ccc(Cn2nc(C)cc2N)cc1	1.27
Nc1ccc(CCN2CCc3cc4c(cc3C2)OCO4)cc1	1.06
COc1cccc2oc(C(=O)O)cc(=O)c12	1.12
COC(=O)[C@@H]1[C@@H](O)[C@@]2(O)c3c(OC)cc(OS(=O)(=O)c4ccc(C)cc4)cc3O[C@@]2(c2ccc(Br)cc2)[C@H]1c1ccccc1	1.02
COc1cc(O)c(C(=O)[C@@H]2CC=C(C)C[C@H]2c2ccccc2)c(O)c1	0.99
COC(=O)C1=C(C)N(Cc2ccccc2)C(=S)NC1c1ccc(F)cc1 (stereo unspecified)	0.941
CC(=O)C1=C(C)N(Cc2ccc(F)cc2)C(=S)NC1c1ccccc1 (stereo unspecified)	1.02
CC(C)c1c2c(nn1C)C(=O)N(c1ccccc1)C2c1cccc(C(F)(F)F)c1 (stereo unspecified)	1.14

Compound	growth
COc1ccc(C2NC(=S)NC(C)=C2C(C)=O)cc1 (stereo unspecified)	0.986
CC(C)Cc1c2c(nn1Cc1ccccc1)C(=O)NC2c1ccc(F)cc1 (stereo unspecified)	0.995
O=c1ccoc(CC23CCOC2Nc2ccccc23)c1O (stereo unspecified)	1.44
O=C1C=C(c2ccccc2)CC1c1ccccc1 (stereo unspecified)	0.946
C[C@@H]1/C=C\CC(=O)OCCCCCC(=O)N[C@@H]1c1ccccc1	1.12
COc1ccccc1Cn1nc(C(C)C)c2c1C(=O)NC2c1ccc(F)cc1 (stereo unspecified)	0.98
COC(=O)C1=C[C@@H]([C@@H](C)[C@H](OC)c2ccccc2Br)[C@@H]2OCC[C@H]12	1.07
CC(C)CCCC(C)(CCOS(=O)(=O)NC(C)(C)C)CCC(=O)OC(C)(C)C (stereo unspecified)	0.996
CC(C)Cn1nc(-c2ccccc2)cc1Nc1cc(O)cc(O)c1C(=O)N1Cc2cn[nH]c2C1	1.09
CC(C)Cc1n[nH]c2c1C(c1ccccc1Br)N(c1ccc(F)cc1)C2=O (stereo unspecified)	1.07
CC(C)Cc1n[nH]c2c1C(c1ccccc1Cl)N(c1ccc(F)cc1)C2=O (stereo unspecified)	1.33
C=CC[C@]12C[C@@]3(O[C@H](C(C)C)N=C3C[C@H](c3ccc(OC)cc3)[C@H]1C)N(Cc1ccncc1)C2=O	1.02
CCC[C@@H](O)COc1cc2c(cc1C1(c3cc4c(cc3OC[C@H](O)CCC)OCO4)C(=O)Nc3cc(F)ccc31)OCO2	1.01
C=CC[C@@]12C(=O)N(C)[C@@](O)(c3ccccc3)[C@@H]1[C@]1([C@H](COC)OC)c3ccccc3[C@H]2c2ccccc21	1.24
CC(=O)OC[C@H]1O[C@H](c2cc(C)cc(C)c2)C=C[C@H]1OC(C)=O	1.04
CC(C)[C@@H]1N=C2C[C@H](c3ccccc3)[C@@H](C)[C@@H]3C[C@@]2(O1)N(Cc1ccco1)C3=O	0.704
CCOC(=O)CN1C(=O)N[C@@H](c2cccc(C(F)(F)F)c2)[C@H](C(C)=O)[C@H]1C	0.954
COC(=O)C1=C(C)N(CCc2cccs2)C(=S)NC1c1ccc(C)cc1 (stereo unspecified)	0.98
CC(=O)C1=C(C)NC(=O)NC1c1ccc(F)cc1 (stereo unspecified)	1.11
COc1ccc(Cn2nc(C(C)C)cc2N)cc1	1.25
CC(=O)OC[C@H]1O[C@H](C#Cc2cccc(Cl)c2)C=C[C@@H]1OC(C)=O	1.09

Compound	growth
COc1ccc(CCN2C[C@@]3(O)CC[C@@H](O)[C@@H](OC)[C@@H]3[C@@]2(C)[C@H](O)CC=C(C)C)cc1OC	1.21
Cn1nccc1Nc1cc(O)cc(O)c1C(=O)N1CCC(F)(F)C1	1.04
CC(C)(C)C[C@@H](O)COc1cc2c(cc1C1(c3cc4c(cc3OC[C@H](O)CC(C)(C)C)OCO4)C(=O)Nc3cc(Br)ccc31)OCO2	0.948
COC(=O)C1=C(C)N(Cc2cccc(C(F)(F)F)c2)C(NCc2cccc(C(F)(F)F)c2)=NC1c1cccc(Cl)c1 (stereo unspecified)	1.13
CCC(=O)C[C@@H](NC(=O)OC)c1ccc(F)cc1	0.954
O=C1CC2(CCCCC2)CNC(=O)c2cccc(c2)-c2cc(n[nH]2)COCCOCCN1	1.05
COC(=O)C1=C(C)N(C)C(NCc2ccc3c(c2)OCO3)=NC1c1ccc(Cl)cc1 (stereo unspecified)	0.915
COc1ccc(-c2cnc3c(-c4ccc(OC)nc4)cnn3c2N)cc1	1.02
CC(C)(O)/C=C/C1=C[C@@H](O[Si](C)(C)C(C)(C)C)[C@@H]2O[C@@H]2C12OCCCO2	1.03
CCN1C(=S)NC(c2ccc(OC)cc2)C(C(C)=O)=C1C (stereo unspecified)	0.992
C[C@@H]1/C=C/CC(=O)OCc2ccccc2CC(=O)N[C@@H]1c1cccc(Br)c1	1.07
COC(=O)[C@H]1C(=O)[C@@]2(NN(C)C)c3c(OC)cc(OC)cc3O[C@@]2(c2ccc(OC)cc2)[C@@H]1c1ccccc1	1.42
C[C@H]1C=C(Br)[C@]2(CCCO2)[C@@H]1c1ccccc1	1.19
O=C1N[C@@H](c2ccccc2)COCc2cc([nH]n2)-c2ccccc2-c2cccc(c2)C(=O)N2C[C@H](O)C[C@@H]12	0.821
CC(C)Cc1nn(Cc2ccccc2)c2c1C(c1ccc3c(c1)OCO3)NC2=O (stereo unspecified)	1.16
COC(=O)C/C=C/[C@H](C)[C@@H](NC(=O)[C@@H](Cc1ccccc1)NC(=O)OC(C)(C)C)c1ccccc1	0.984
COc1cc2c(cc1C1(c3cc4c(cc3OC)OCO4)C(=O)Nc3cc(F)ccc31)OCO2	1.14
CC(C)CC1=NCCNC2=C1C(c1ccc(F)cc1)N(c1ccccc1)C2=O (stereo unspecified)	0.942
